110 molecules from PubChem BioAssay AID488969 (Vanderbilt High Throughput Screening Facility, 2010) can be followed below.

Structures are written as SMILES. The full ranking holds about 110,000 compounds; the median of “z-score” is about -0.1, and the highest 2% start at about 2. The list shows a part of the results. Active and inactive are the calls of the source.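 How the source made its calls: active means z-score in the third read window above 3 or below -3; inactive means the rest.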

In this experiment the target is Metabotropic glutamate receptor 8 (Rattus norvegicus) (UniProt P70579). In words: mGluR8 Gi/Go-coupled signaling modulation – cell-based, rat, thallium flux, HTS, primary screen (AID 488969). To be noted: HEK293 rat mGluR8, GIRK (G protein-gated inwardly rectifying potassium channel) thallium flux, FluoZin2; at 10 µM; stronger effect = higher value; submaximal glutamate (EC20) added with thallium.
Chain of UniProt P70579 (P70579 whole entry, looked up): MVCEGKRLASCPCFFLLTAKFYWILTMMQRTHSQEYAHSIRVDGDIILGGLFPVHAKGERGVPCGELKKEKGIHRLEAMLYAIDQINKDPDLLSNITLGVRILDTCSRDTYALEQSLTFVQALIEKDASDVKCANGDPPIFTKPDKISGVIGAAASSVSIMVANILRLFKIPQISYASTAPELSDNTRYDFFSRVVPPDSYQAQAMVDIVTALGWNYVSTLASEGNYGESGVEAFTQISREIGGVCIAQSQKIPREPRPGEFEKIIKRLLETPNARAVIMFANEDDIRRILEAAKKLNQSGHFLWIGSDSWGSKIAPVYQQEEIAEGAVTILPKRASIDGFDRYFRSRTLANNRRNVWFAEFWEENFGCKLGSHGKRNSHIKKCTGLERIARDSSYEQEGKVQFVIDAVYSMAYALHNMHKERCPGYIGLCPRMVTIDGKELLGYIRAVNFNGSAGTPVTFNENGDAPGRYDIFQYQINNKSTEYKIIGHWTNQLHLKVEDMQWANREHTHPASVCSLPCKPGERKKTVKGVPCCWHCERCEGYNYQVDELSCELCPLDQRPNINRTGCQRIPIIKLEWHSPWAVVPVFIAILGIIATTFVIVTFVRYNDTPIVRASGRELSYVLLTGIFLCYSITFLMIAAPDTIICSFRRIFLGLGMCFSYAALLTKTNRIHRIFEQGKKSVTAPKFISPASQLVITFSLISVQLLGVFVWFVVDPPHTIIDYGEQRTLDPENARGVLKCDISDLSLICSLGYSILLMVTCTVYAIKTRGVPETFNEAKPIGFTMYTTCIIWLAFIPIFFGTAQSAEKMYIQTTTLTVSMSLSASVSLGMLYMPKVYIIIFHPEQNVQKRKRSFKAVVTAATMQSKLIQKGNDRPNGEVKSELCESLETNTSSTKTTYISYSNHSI
Regarding `O=C(Nc1ccc(C(F)(F)F)cc1-c1ccccc1)c1ccccc1`, the z-score is -0.107. With `OC(c1cccc(OCc2ccccc2)c1)c1nnc(-c2ccccc2)o1` (stereo not given) the figure was -1.11; with `Cc1nc(SCC(=O)NCc2ccc(F)cc2)c2c(=O)n(C)c(=O)n(C)c2n1`, -0.598. In the case of `CC(=O)c1ccc(NC(=O)COC(=O)c2ccccc2Sc2ccccc2C#N)cc1` it was 0.189; in that of `COc1ccccc1CNC(=O)C(Cc1c[nH]c2ccccc12)NC(=O)OCc1ccccc1` (stereo not given), -0.903; in that of `CC(C)(C)n1cnc2cc(NS(=O)(=O)c3ccc(Br)cc3)ccc21`, -0.965. Molecule `CCCCNC(=O)CN1C(=O)NC2NC(=O)NC21` (stereo not given) showed a z-score of 0.25. Turning to `CCc1c(O)c(/C(C)=N\O)c(=O)n(-c2ccccc2)c1-c1ccccc1`, the z-score was -0.396. With `O=S(=O)(c1cccs1)N1CCN(c2ccccn2)CC1` the figure was 0.146. With `Cn1cccc1CC(=O)N/N=C/c1cccc2ccccc12` the figure was -0.261; with `CC1CCCCN1C(=O)Cc1ccc(F)cc1` (stereo not given), 0.287. The molecule `COc1ccc(C(=O)N/C(=C\c2ccco2)C(=O)NCCCn2ccnc2)cc1` returned a z-score of -0.12. `CC(=O)Nc1ccc(-c2nc(C)c(C(C)=O)n2O)cc1` came in with a z-score of -0.0847.

`Cc1cc(OC(=O)c2ccccc2Br)cc(=O)n1C` gave a z-score of -0.659. With `COc1ccc(NC(=O)C2OCCc3ccccc32)c(OC)c1` (stereo not given) the figure was 0.252; with `O=C(OC(C(=O)O)C(OC(=O)c1ccccc1)C(=O)NCc1ccccc1)c1ccccc1` (stereo not given), 0.0339. In the case of `Cc1cccc(C(=O)Nc2ccccc2-c2nnn(CC(=O)Nc3ccc4c(c3)OCCO4)n2)c1` it was -0.78; in that of `O=C1CC(c2ccc3c(c2)OCO3)c2cc3c(cc2N1)OCO3` (stereo not given), -0.0249. For the molecule `Oc1[nH]c(=S)sc1/C=C1\C(c2ccccc2)=Nc2ccccc21`, the z-score was -0.0895.

In the case of `CS(=O)(=O)N(Cc1ccccc1)c1ccc(C(=O)NCc2cccnc2)cc1`, the z-score is -0.23. As for `OCc1nc2ccccc2n1CC(O)Cn1ccc2ccccc21` (stereo not given), the z-score amounted to 0.578. With `COc1cc(CNCc2ccccn2)ccc1OCc1cccc(Cl)c1` the figure was -0.00558. In the case of `Cc1c(C)n(CC(O)CN2C(=O)c3ccccc3S2(=O)=O)c2ccccc12` (stereo not given) it was 0.15; in that of `C[n+]1c2n(c3ccccc31)N=C(c1ccccc1)CS2`, -0.215; in that of `O=C(OCn1ncc(Br)c(Br)c1=O)c1ccc(F)cc1`, -2.36.

In turn, `Cc1ccccc1OCCOc1ccccc1C=C(C#N)C#N` displayed a z-score of -0.0486.

Turning to `Cc1cc(NCCCn2ccnc2)n2c(nc3ccccc32)c1C#N`, the z-score was -0.361. In the case of `Cc1cccc(N2C(=O)CC(Sc3nc(-c4ccccc4)c4cc(Cl)ccc4n3)C2=O)c1` (stereo not given) it was -0.887. Regarding `COc1ccc(CCNC(=O)CCn2c(SCC#N)nc3ccccc3c2=O)cc1OC`, the z-score was -0.0568. In the case of `CCOC(=O)C1C(=O)OC2(CCCCC2)C1C(=O)OCC` (stereo not given) it was 0.124; in that of `COc1ccccc1C1N(c2ccc(Cl)cc2)C(=O)C2CCCN21` (stereo not given), -0.39; in that of `CCOC(=O)c1c(C)[nH]c(O)c1C=Nc1ccc(C(F)(F)F)cc1`, -0.104. Regarding `O=C(CSc1nnc(Cn2nnc3ccccc32)o1)N(Cc1ccc(Cl)cc1)c1ccccc1`, the z-score was -0.17. In the case of `O=C(NN=c1c(=O)c2ccccc2c1=O)c1ccccc1` it was active: 6.47; in that of `Nc1nonc1-c1nc2ccccc2n1Cc1ccccc1`, 0.128. `S=C(NCc1cccs1)Nc1cccc(Cl)c1`: the z-score is active: 4.52. On to `Cc1ccc(C(=O)NCC(=O)OCC(=O)Nc2ncc(C(F)(F)F)cc2Cl)cc1`, for which the z-score is -0.464. In the case of `C=CCn1c(C)cc(-c2csc(N)n2)c1C` it was 0.0849; in that of `O=C(O)C(=O)/C(=C\c1ccccc1)c1ccc2ccccc2n1`, 0.0525. In the case of `O=C(c1cc2ccccc2oc1=O)N(Cc1cccs1)Cc1ccccc1Cl` it was 0.00762; in that of `COC(=O)c1onc(-c2c(OC)cc(OC)cc2OC)c1C(=O)OC`, 0.522; in that of `Nc1nc(SCc2ccc3c(c2)OCCO3)n[nH]1`, -0.365. With `Cc1cccc(NC(=S)N2CCN(C(=O)C3CCCO3)CC2)c1` (stereo not given) the figure was -0.319.

`Cn1nc(-c2ccccc2)c(C#N)c1Sc1cccc(Cl)c1` showed a z-score of 0.228. In the case of `Cc1ccc(OCCN2CCN(C(=O)CCC(=O)Nc3nnc(C(C)C)s3)CC2)cc1` it was 0.375; in that of `CCc1nc2ccccc2n1CCC(C)C`, -0.198. With `Cc1cc2nc(C3CCCN(C(=O)NCc4ccccc4)C3)[nH]c2cc1C` (stereo not given) the figure was -0.155. With `COc1ccc(S(=O)(=O)NC(C)(C)C)cc1-c1nnc2c3ccccc3c(C)nn12` the figure was -0.649; with `Cc1ccc(C(=O)NN(CCC(=O)NC(C)(C)C)C2=NS(=O)(=O)c3ccccc32)cc1`, -0.226; with `COc1ccccc1-c1nc(C#N)c(N2CCN(Cc3ccccc3)CC2)o1`, 0.0931. With `CCOc1ccc(OCCOCCOc2ccccc2Cl)cc1`, the z-score was -0.132. `CCNC(=S)N(Cc1ccc(OC)cc1)C1CC(=O)N(c2ccc(OCC)cc2)C1=O` (stereo not given) gave a z-score of -0.0409. With `CCOC(=O)c1ccccc1NC1c2ccccc2C(=O)N1C1CCN(C(=O)OCC)CC1` (stereo not given) the figure was -0.69; with `Cn1c(NC(=O)CCC2CCCCC2)cc(=O)n(C)c1=O`, -0.0709; with `Cc1ccc(OC(C)C(=O)O)cc1C` (stereo not given), 0.126.

For the molecule `COc1ccc(OC)c(C(=O)COC(=O)CNC(=O)C2CCCCC2)c1`, the z-score was found to be 0.127.

For the molecule `Cc1ccccc1Nc1nnc(C)c(=O)[nH]1`, the z-score was determined as 0.0115. In the case of `Brc1ccc2ncnc(Nc3ccc(N4CCOCC4)cc3)c2c1` it was -0.207; in that of `COc1ccc(-n2c(CNc3ccc(C)cc3)nnc2SCC(=O)Nc2nc(-c3ccccc3)cs2)cc1`, 0.133; in that of `COc1ccc(C(CC(=O)c2ccc(O)cc2)S(=O)(=O)c2ccc(C)cc2)cc1` (stereo not given), -0.254. For the molecule `CC12CC(NC(=O)N1c1cccc(C(=O)N3CCN(c4ccccc4)CC3)c1)c1ccccc1O2` (stereo not given), the z-score is -0.354. In the case of `Cc1cc(NC(=O)c2noc3c2CCCCC3)no1` it was 0.114; in that of `CCN1C(=O)/C(=C\N2CCCc3ccccc32)SC1=S`, -0.289.

The molecule `Cc1cc(NC(=O)Cc2ccccc2)nc2c1c(=O)oc1ccccc12` had a z-score of -0.184. In the case of `O=[N+]([O-])c1cccnc1N1CCOCC1` it was 0.0447; in that of `COc1ccc(-c2nnc3sc(CCN4C(=O)c5ccccc5C4=O)nn23)cc1`, -0.591. With `CCOc1ccc(S(=O)(=O)N2CCCCC2)c2ccccc12` the figure was 0.294; with `Cc1ccc(N(CC(=O)Nc2c(C)n(C)n(-c3ccccc3)c2=O)S(C)(=O)=O)cc1C`, 0.205; with `Cc1ccccc1NC(=O)c1c(C)[nH]c(=S)c(C#N)c1-c1ccco1`, -0.529. In the case of `COc1ccc(Cc2nnc(SCc3nc4ccccc4c(=O)[nH]3)o2)cc1` it was 0.393; in that of `CC1CC(=O)C(C2c3ccccc3CCN2C(=O)CCl)C(=O)C1` (stereo not given), -0.138.

Molecule `CCOc1ccc2nc(Cl)c(/C=C/C(=O)c3ccco3)cc2c1` returned a z-score of -0.0563. Regarding `COc1ccccc1N1CCN(Cc2nc(N)nc(Nc3ccc(C)cc3)n2)CC1`, the z-score was -0.223.

In turn, `COC(=O)c1ccc(-c2nc(-c3ccc(Br)o3)no2)cc1` returned a z-score of -0.238. On to `O=C(Nc1ccc(Br)cc1)/C(=C/c1cccc([N+](=O)[O-])c1)NC(=O)C1CCCCC1`, for which the z-score is -0.00443. `CCCCOC(=O)Nc1nc2ccc(OC)cc2s1` yielded a z-score of 0.178. With `Cc1nc(-c2ccccc2)nc2[nH]c(=O)n(-c3ccccc3)c(=O)c12` the figure was -0.181. The molecule `CCOC(=O)CC1=NN(c2ccccc2)C(=O)/C1=C\c1ccc(N(C)C)cc1` gave a z-score of -0.241. Regarding `COc1ccc(-c2[nH]nc3oc(=O)cc(C)c23)cc1`, the z-score was -0.514.

In the case of `CCOC(=O)c1c(NC(=O)COC(=O)c2cc(OC)c(OC)cc2[N+](=O)[O-])sc(C)c1CC`, the z-score was -0.164. With `Cc1cc(C(=O)NNC(=S)NC(C)c2ccccc2)cs1` (stereo not given) the figure was -0.281; with `Cc1cccc(NC(=O)CCN2CCN(C/C=C/c3ccccc3)CC2)c1`, -0.052; with `O=C(c1cc(-c2ccccc2O)on1)N1CCCC1`, 1.16.

`COc1ncnc2c1N[C@@](C)(O)c1c(F)c(F)c(F)c(F)c1S2` registered a z-score of -0.0317. In the case of `COc1ccccc1NC(=O)Nc1c(C)n(C)n(-c2ccccc2)c1=O` it was 0.24. For the molecule `CCN(CC)C(=O)CSc1ncnc2sc(-c3ccccc3)cc12`, the z-score was active: 7.95. With `Cc1cc(NC(=O)/C=C/c2ccc(Cl)cc2)no1` the figure was -0.135; with `COC(=O)/C(=N/Nc1cccc(C)c1)N1CCCc2ccccc21`, -0.389; with `Cc1ccc(S(=O)(=O)N2CCCC2C(=O)Nc2nc3ccccc3s2)cc1` (stereo not given), 0.0613. In the case of `COC(=O)CC1SC(=O)NC1=Nc1ccc(O)cc1` (stereo not given) it was -0.0696; in that of `CCOC(=O)CSc1nc2ccc(N)cc2s1`, -0.621. In the case of `COc1ccc(-c2nnc(SCCOc3cccc(C)c3)n2N)cc1` it was -0.058; in that of `O=C(c1ccc(Cl)cc1)c1oc2ccccc2c1CS(=O)c1ccc(Cl)cc1` (stereo not given), -0.0958; in that of `O=c1cc(O)c2c(=O)n(-c3ccccc3)c3c(c2o1)CCCCCC3`, 1.76.

In turn, `COc1ccc(-c2cc(=Nc3ccc(C)cc3)c3ccccc3o2)cc1` yielded a z-score of -0.0733. With `COc1ccc(OC)c(CCNC(=O)CN2C(=O)CC(C)(C)S(=O)(=O)c3ccccc32)c1` the figure was 0.0628; with `Cc1cccc(-n2c(O)c(C=NCc3ccccn3)c3ccccc3c2=O)c1`, -0.159.

On to `CN(CC(=O)N1CCc2ccccc21)S(=O)(=O)c1ccc(Br)s1`, for which the z-score is -0.319. In the case of `O=C(/C=C/c1cccc([N+](=O)[O-])c1)NCCSCc1ccc(Cl)cc1` it was -0.207. In the case of `O=C(/C(=C(\[O-])c1ccccc1)[n+]1ccc2ccccc2c1)c1ccccc1` it was -0.294. In the case of `CC(NC(=S)Nc1ccccc1)C1COc2ccccc2O1` (stereo not given) it was -2.2e-06; in that of `O=C(c1cc(C2CC2)on1)N1CCN(c2ccccc2)CC1`, 0.0624; in that of `C=CCn1c(SCC(=O)Nc2cc(OC)c(NC(=O)c3ccco3)cc2OC)nnc1-c1ccncc1`, -0.521. For the molecule `N#Cc1c(/N=C/N2CCOCC2)sc2c1CCCCC2`, the z-score worked out at 0.6. The molecule `N#Cc1c(SCC(N)=O)nc2c(c1-c1ccc(OCc3ccccc3)cc1)CCCC2` displayed a z-score of 0.0179. As to `C=CCn1c(SCC(=O)c2[nH]c(C)c(C(C)=O)c2C)nnc1-c1ccncc1`, the z-score was determined as 0.2. In turn, `CCn1c(Cc2c(C)[nH]c3ccccc23)nnc1SCC(=O)NCc1ccccc1` came in with a z-score of 0.429. With `COc1ccc(C(C)=O)cc1CSc1nnc(-c2ccccc2O)n1-c1ccccc1` the figure was -0.352; with `CCN1C(=O)/C(=C/c2c(C)nn(C)c2C)SC1=S`, -0.0885; with `Cc1cc(/C=C(\C#N)C(N)=O)c(C)n1-c1ccc(N2CCOCC2)c([N+](=O)[O-])c1`, 0.779.
